Assay results taken from paper PMC3380837.
These are yes or no findings as the source states them, for the method shown. In cells and extracts the contact can be indirect. Some entries that bind do so weakly or less than the wild type. Sequences can lack the tags named with a protein.

Molecular target: T1, GST-FL (GST-SHP full length) (UniProt Q15466)
T1 sequence: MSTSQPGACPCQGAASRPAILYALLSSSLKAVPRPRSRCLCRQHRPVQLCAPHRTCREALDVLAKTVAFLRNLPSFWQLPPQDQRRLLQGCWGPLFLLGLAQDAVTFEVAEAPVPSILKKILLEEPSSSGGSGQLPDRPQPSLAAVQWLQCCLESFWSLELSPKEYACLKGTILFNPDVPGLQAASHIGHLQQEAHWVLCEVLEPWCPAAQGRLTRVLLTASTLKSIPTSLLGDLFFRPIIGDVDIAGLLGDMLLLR
Assay: pull-down; GST-SHP fusion proteins from E. coli BL21/DE3/RIL as bait; in vitro translated Flag-p53 as prey; only the target purified

binding: binds
Substance: Flag-p53, in vitro translated (from UniProt P04637 1-393)
